Experimental data from PubChem BioAssay AID1948 (National Center for Advancing Translational Sciences (NCATS), 2009).
The campaign covered roughly 110,000 compounds. About 20 (0.02%) were called active. Inconclusive means that the source gave no clear call. Such entries were picked first, then a sample of the others. Calls come from the whole dose curve; as a rule, active = well fitted activation curve with a large enough effect; inconclusive = small, poorly fitted or top-dose-only effect; inactive = no such curve, though single readings can be large or run the other way. No potency is given beside an inconclusive call; the fits are too rough.
Potency is the fitted concentration of half-maximal effect; tags give direction and shape of the fitted curve.

Assay: qHTS Assay for Compounds that Induce Erasure of Genomic Imprints;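 for activity change, positive = activation: 0% = negative control wells on the plate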
Details: mouse ES Peg3-LacZ reporter, beta-gal luminescence, 40 h; activity change, positive = activation: at 10.9 µM (top of the series) unless noted
How it was run: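 Gelatin-coated wells received 300 freshly trypsinized female ES cells with a Peg3LacZ-Neo reporter on the maternal allele, then incubated 40 hours at 37C. BetaGlo was added for 5 minutes at room temperature before a single luminescence read.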
In the case of CCOc1ccc(CNC(=O)c2ccc(CS(=O)c3ccccc3)o2)cc1 (configuration not stated), the “activity change, positive = activation” value is reported as inactive: -14.1%.
With CC(S)C(=O)NCC(=O)O (configuration not stated) the Potency was inconclusive [activator, single point].
With Cc1ccc(C(=O)Nc2ccc(OCc3cc(=O)n4c5c(sc4n3)CCCC5)cc2)cc1 the activity change, positive = activation was inconclusive: 88.5% [activator].
For CC(=O)Nc1ccc(NC(=O)Cn2c(CC(=O)N3CCCC3)nc3ccccc32)cc1, the Potency was inconclusive [activator, single point].
In the case of CCn1c(C)c(C(C)=O)c(NCc2ccccc2)nc1=S, the Potency is reported as inconclusive [activator, single point].
For CN1C(C)(C)CCCC1(C)C, the Potency was inconclusive [activator, single point].
With CC(C)c1nnc(NC(=O)c2nc(S(=O)(=O)Cc3ccccc3)ncc2Cl)s1 the “activity change, positive = activation” value was inactive: -30.5%.
In the case of O=C(CN1CC(c2ccccc2)CC1=O)Nc1ccc2c(c1)OCO2 (configuration not stated), the “activity change, positive = activation” value is reported as inactive: 11.9% [at 60.7 µM].
For Brc1ccc(C2=Nn3c(nnc3-c3n[nH]c4c3CCC4)SC2)cc1, the “activity change, positive = activation” value was inactive: -18.9% [at 60.7 µM].
With O=C(c1ccc2c(c1)OCO2)N(c1ccccc1)C1C=CS(=O)(=O)C1 (configuration not stated) the Potency was inconclusive [activator, single point].
In the case of Cc1ccc(CNC(=O)c2c(C)oc3nc(C)nc(N4CCOCC4)c23)cc1, the activity change, positive = activation is reported as inconclusive: 35% [activator].
With C=CCn1c(NC(=O)c2ccccc2)c(C#N)c2nc3ccccc3nc21 the “activity change, positive = activation” value was inactive: -6.16% [at 60.7 µM].
In the case of Cc1nn(CCCC(=O)NCc2ccccc2)c(=O)c2cc3sccc3n12, the activity change, positive = activation is reported as inconclusive: 43.3% [activator].
With O=C(Cn1cc2c(n1)CCCC2)NCc1cccc(Cl)c1 the Potency was inconclusive [activator, single point].
In the case of Fc1ccc(CSc2nc(NCc3ccccc3)c3ccccc3n2)cc1, the “activity change, positive = activation” value is reported as inactive: -6.21%.
With COc1cccc(-c2nn(C)c3sc(C(=O)NCc4ccco4)cc23)c1 the Potency was inconclusive [activator, single point].
With COc1ccc(CC(=O)Nc2ccc(S(=O)(=O)NCC3CCCO3)cc2)cc1 (configuration not stated) the “activity change, positive = activation” value was inactive: -10.2% [at 60.7 µM].
With CCOC(=O)C1CCCN(c2ncnc3c2nnn3C)C1 (configuration not stated) the activity change, positive = activation was inconclusive: 39.1% [activator].
In the case of Cc1onc(COc2ccccc2O)c1Br, the Potency is reported as inconclusive [activator, single point].
With O=C(O)CCSC1=NCCN1 the Potency was inconclusive [activator, single point].
For Cc1nc2cccnc2n1-c1cccc(C(=O)NCCc2ccc(S(N)(=O)=O)cc2)c1, the activity change, positive = activation was inconclusive: 65.1% [activator].
With O=c1c(-c2ccc(F)cc2)nc2cncnc2n1Cc1ccccc1 the Potency was inconclusive [activator, single point].
